For orientation: inhibition means the relative decrease from the control value, in per cent.

Screen size: about 340,000 compounds; about 6,900 (2%) were called active. Cut-off read from the data, not from the text of the source: active = inhibition above about 30%; inactive = below that, where a call was filed. The list shows a part of the results, in another mix than the full data. The source gives no active or inactive call for entries shown without one.

Chain of UniProt P14416 (P14416 whole entry, looked up): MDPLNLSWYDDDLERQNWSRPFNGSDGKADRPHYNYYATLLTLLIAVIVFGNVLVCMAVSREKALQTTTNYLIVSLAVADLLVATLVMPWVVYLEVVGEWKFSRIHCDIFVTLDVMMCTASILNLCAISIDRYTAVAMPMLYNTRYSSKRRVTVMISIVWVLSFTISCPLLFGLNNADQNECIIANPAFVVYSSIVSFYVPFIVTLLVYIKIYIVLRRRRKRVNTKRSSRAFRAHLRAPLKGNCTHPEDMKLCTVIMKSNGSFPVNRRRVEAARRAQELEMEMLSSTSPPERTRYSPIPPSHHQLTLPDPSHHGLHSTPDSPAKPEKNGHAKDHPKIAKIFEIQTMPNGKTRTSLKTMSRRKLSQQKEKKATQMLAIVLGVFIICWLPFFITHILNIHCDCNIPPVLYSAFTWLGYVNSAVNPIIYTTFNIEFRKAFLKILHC

This assay addresses D(2) dopamine receptor (Homo sapiens) (UniProt P14416). Nature of the assay: HTS Assay for Allosteric Antagonists of the Human D2 Dopamine Receptor: Primary Screen for Antagonists. Note: 0% is about no effect. The note with it: HEK293 TREx D2 cells, calcium flux, dopamine EC80; at 10 µM; stronger effect = higher value. The procedure, abridged:
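Inhibition of EC80 dopamine-driven calcium flux, recorded kinetically, defines activity here; cells are a tetracycline-induced HEK293 T-REx line expressing force-coupled D2.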
On the technique in general: Calcium flux is commonly read through the fluorescence of an indicator in the cells.
Turning to `CCOC(=O)c1nc(Nc2ccc(Cl)cc2)c2c(C)noc2n1`, the inhibition is -7.44%.

In the case of `O=C(Nc1cc(C(F)(F)F)ccc1Cl)c1ccc2c(c1)CCN2S(=O)(=O)c1ccccc1`, the inhibition was determined as 5.61%.

Regarding `CCc1ccc(CNC(=O)C(CC)n2nc(C)c3c(C)n(-c4ccccc4)nc3c2=O)cc1` (stereo not drawn), the inhibition was -8.93%.

As to `Cc1ccc(-c2c(C(=O)N/N=C/c3ccsc3)nnn2-c2nonc2N)cc1`, the inhibition is active: 34.5%.

In the case of `CCCNc1ccc(-c2nc(-c3ccco3)no2)cc1[N+](=O)[O-]`, the inhibition worked out at 2.96%.

For `Cc1cc(S(=O)(=O)n2ccnc2C(C)C)cc([N+](=O)[O-])c1C`, the inhibition is 12.2%.

On to `COc1ccc(CNc2nc(-c3ccco3)nn2C(=O)CC(C)C)cc1`, for which the inhibition was 1.5%.

Turning to `CCOC(=O)c1[nH]c2ccccc2c1NC(=O)c1ccccc1OC`, the inhibition was -22.4%.

`COc1ccc(Cc2nnc(C(=O)NCCCN3CCN(c4ccccc4F)CC3)o2)cc1OC`: the inhibition is 9.77%.

Turning to `CC(C)COc1ccc(Nc2ncnc3ccc(Br)cc23)cc1`, the inhibition was 15.7%.

As for `O=C(c1cccs1)N1CCN(c2ccccc2)CC1`, the inhibition was active: 31.4%.

For `COC(=O)c1sccc1S(=O)(=O)N(CC(=O)NCc1ccc(F)cc1)c1ccc(C)c(C)c1`, the inhibition turned out to be 0.387%.

Take `CNS(=O)(=O)c1cn(CC(=O)Nc2cccc(C(F)(F)F)c2)cc1S(=O)(=O)NC`: the inhibition is -1.26%.

Consider `Cc1cccc(NC(=O)NC2COc3ccccc3C2)c1C` (stereo not drawn), for which the inhibition turned out to be 1.15%.

Consider `CNS(=O)(=O)c1cn(CC(=O)N2CCN(c3ccc(C)cc3C)CC2)cc1S(=O)(=O)NC`, for which the inhibition is -6.05%.

As for `Cc1ccc(N2C(=O)CS(=O)(=O)C23C(=O)N(Cc2ccccc2F)c2ccccc23)cc1Cl` (stereo not drawn), the inhibition was -4.68%.

Consider `O=C(COc1ccccc1Cl)Nc1ccccc1OCc1cc(=O)n2ccccc2n1`, for which the inhibition was -5.02%.

In the case of `O=C(CN1C(=O)C2CCCCN2c2ccc(C(=O)N3CCCC3)cc21)NCc1ccccc1F` (stereo not drawn), the inhibition is 12.3%.

With `CN(c1ccccc1)C(CNS(=O)(=O)c1ccccc1)c1ccccc1` (stereo not drawn), the inhibition was 4.82%.

On to `CCCCN(CC)CCNc1ncnc2onc(-c3ccc(Cl)cc3)c12`, for which the inhibition turned out to be 8.01%.

For `COc1ccccc1NC(=O)CN1CCN(CC(=O)Nc2ccc(F)c(F)c2)CC1`, the inhibition is -19.2%.

For the molecule `Clc1cccc(OCCCCN2CCCCC2)c1`, the inhibition was active: 76.8%.

Consider `O=S(=O)(Nc1cccc(-c2ccc(N3CCOCC3)nn2)c1)c1cc(C(F)(F)F)ccc1Cl`, for which the inhibition is 10.7%.

`COc1ccc(C2c3c(-c4ccccc4O)n[nH]c3C(=O)N2CCc2ccccc2)cc1` (stereo not drawn): the inhibition is -7.09%.

Consider `COC(=O)c1ccc(Cl)cc1NC(=O)Nc1nnc(N(C)Cc2ccccc2)s1`, for which the inhibition came to 5.12%.

As for `CCC(C(=O)OC)n1nnc2sc(-c3ccccc3)cc2c1=O` (stereo not drawn), the inhibition is -3.9%.

Turning to `CCOC(=O)c1ccc(CN(Cc2ccc(Br)cc2)S(=O)(=O)c2cccc(C(F)(F)F)c2)cc1`, the inhibition turned out to be 18.5%.

For `COc1ccc2c(c1)c(=O)c(C(=O)c1ccc(C)cc1)cn2Cc1ccccc1F`, the inhibition amounted to 2.57%.

With `Cc1cc(C)cc(NC(=O)C(=O)NCC(c2cccnc2)N2CCc3ccccc32)c1` (stereo not drawn), the inhibition turned out to be 14.6%.

Consider `Cn1c(=O)c2sccc2n2c(CCC(=O)Nc3ccc(F)cc3)nnc12`, for which the inhibition was 0.966%.

Consider `COc1cccc(C(=O)c2sc(Nc3ccc(F)c(Cl)c3)nc2N)c1`, for which the inhibition stood at 4.83%.

Regarding `Cc1nnc(SCC(=O)Nc2nccs2)s1`, the inhibition is active: 33.7%.

Regarding `Cc1ccc(C)c(NC(=O)CSc2nnc(C)n3c2cc2occc23)c1`, the inhibition is -6.25%.

For `COc1ccc(OC)c(-c2noc(N3CCN(c4cc(Cl)ccc4C)CC3)n2)c1`, the inhibition was -3.74%.

For the molecule `COc1cc(C(=O)Nc2ccccc2OCc2cc(=O)n3c(C)csc3n2)cc(OC)c1OC`, the inhibition is 2.27%.

For `Cc1ccc(C)c(N2CCN(C(=O)CN3CCSc4ccccc43)CC2)c1`, the inhibition is 8.24%.

As for `Cc1cccc(-c2nc(SCc3cc(=O)c4cccc(F)c4[nH]3)n[nH]2)c1`, the inhibition was -10.8%.

Turning to `CN(Cc1nccs1)C(=O)C1CCC(=O)N(CCc2ccc(Cl)cc2)C1` (stereo not drawn), the inhibition was active: 32.7%.

Regarding `CCN1CCN(C(c2ccc(C)cc2)c2sc3nc(-c4ccco4)nn3c2O)CC1` (stereo not drawn), the inhibition was determined as 5.58%.

As for `COCCn1c(=N)c(C(=O)NCC2CCCO2)cc2c(=O)n3ccccc3nc21` (stereo not drawn), the inhibition was found to be 0.374%.

In the case of `CCOc1ccc(CCNC(=O)CSc2nnnn2-c2ccccc2Cl)cc1OCC`, the inhibition turned out to be 11.1%.

Take `COc1ccc(N2C(=O)C(CC(=O)Nc3ccc(Cl)cc3)N(Cc3ccc4c(c3)OCO4)C2=O)cc1` (stereo not drawn): the inhibition came out at 16.5%.

As for `COc1ccc(NC(=O)CCc2nc3cccnc3n2-c2ccccc2)c(OC)c1`, the inhibition is -4.51%.

On to `Cc1cccc2sc(N(Cc3cccnc3)C(=O)CCS(=O)(=O)c3ccccc3)nc12`, for which the inhibition is -13.6%.

For `CCOC(=O)c1c(NC(=O)c2cc(=O)c3cc(Cl)ccc3o2)sc(C)c1C`, the inhibition amounted to 9.36%.

With `Cn1c(C(=O)NCCCN2CCN(c3cccc(Cl)c3)CC2)cc2c(=O)n(C)c3ccccc3c21`, the inhibition was active: 95.2%.

Regarding `C#CCSc1nccc(-c2nn(-c3ccc(C)cc3)ccc2=O)n1`, the inhibition is active: 32.3%.

Take `Fc1ccc(F)c(Nc2c3c(nc4ccc(Cl)cc24)CCC3)c1`: the inhibition is -10%.

With `CCN(CC)CCCNC(=O)c1c2c(nc3ccccc13)C(=O)N(C1CCCCC1)C2`, the inhibition came to 2.98%.

As for `CCOc1cc(/C=N/NC(=O)c2ccc(N(C)S(=O)(=O)c3ccccc3)cc2)ccc1OC`, the inhibition is active: 31.2%.

`CC(=O)c1cccc(NC(=O)COC(=O)c2ccc3c(c2)OCCO3)c1`: the inhibition is active: 39.1%.

Take `O=C(NCCS(=O)(=O)N1CCN(c2ccccc2F)CC1)c1ccccc1C(F)(F)F`: the inhibition turned out to be 2.49%.

Consider `COc1cccc(CNC(=O)Cn2c(=O)cc(C(F)(F)F)c3c(C)nn(C)c32)c1OC`, for which the inhibition was -9.4%.

With `CCOC(=O)c1ccc2c(c1)sc1nc(-c3ccc(OCC)cc3)cn12`, the inhibition is 9.81%.

Take `COc1cccc2sc(N(Cc3cccnc3)C(=O)C3CCCCC3)nc12`: the inhibition is -19%.

For the molecule `CCOC(=O)C1CCCN(C(=O)c2cc3c(Cl)nc4ccccc4c3s2)C1` (stereo not drawn), the inhibition was found to be 27.9%.

Take `CC1CCc2c(sc3nc(-c4cc5ccccc5oc4=O)nc(Cl)c23)C1` (stereo not drawn): the inhibition was -19.3%.

In the case of `CCOc1ccc(C2c3c(-c4ccccc4O)n[nH]c3C(=O)N2Cc2cccnc2)cc1OC` (stereo not drawn), the inhibition was found to be 16%.

In the case of `CC(C)c1nn2c(=O)cc(COC(=O)c3cccc(NC(=O)c4ccccc4F)c3)nc2s1`, the inhibition stood at 6.57%.

In the case of `O=C(Nc1cccc(Cl)c1)C(Cc1ccccc1)n1cccc1` (stereo not drawn), the inhibition is 1.1%.

`CCC1Oc2ccc(C)cc2N(CC(=O)NCc2ccc(F)cc2)C1=O` (stereo not drawn): the inhibition is -12.4%.

Turning to `Cc1ccc(C)c(N(C)C(=O)CCNC(=O)Cn2cnc3ccccc3c2=O)c1`, the inhibition stood at 0.76%.

As to `CC(C)CC(=O)Nc1nnc(S(=O)(=O)N(C)c2ccc(Cl)cc2)s1`, the inhibition stood at 3.34%.
